Test results from PubChem BioAssay AID760 (NMMLSC, 2007).
Screen size: about 190,000 compounds; about 360 (0.19%) were called active. Inconclusive results, whose numbers are uncertain, are shown with a selection of clear calls.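 How the source made its calls: active means GTP binding activity at least 20 points away from 100%, either lowered or raised; inconclusive means signal likely due to the compound's own green fluorescence; inactive means the rest.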

These compounds were tested against Ras-related protein Rab-2A (Canis lupus familiaris) (UniProt P61105) (assay: Rab2 wt fluorescent GTP binding changes, either direction – biochemical, dog, bead-based flow cytometry, multiplex, primary screen (AID 760;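 further: 0% = beads with excess unlabeled GTP and 100% = no-compound control corrected for plate trend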)). Conditions: GST-Rab2 wt beads, Bodipy-GTP binding, at 10 µM.

GTP binding activity, inconclusive:
Cc1ccc2c(c1)[C@@H](O)C[C@@H](C)N2N=O 103%, COc1ccc(C)cc1S(=O)(=O)N(CC(=O)O)c1ccc(F)cc1 90%, COc1cccc(NC(=S)NNC(=O)Cn2nc([N+](=O)[O-])cc2C)c1 94%, COc1ccc(NC(=O)c2ccc3c(=O)n(-c4ccc(OC)cc4OC)c(=S)[nH]c3c2)c(OC)c1 92%, Cn1c(NC(=O)c2cc(-c3ccc4c(c3)OCO4)nc3ccccc23)cc(=O)n(C)c1=O 108%, Cc1cc(C(=O)Nc2c[nH]c(=O)[nH]c2=O)ccc1[N+](=O)[O-] 93%, COCCn1c(SCC(=O)Nc2cccc(C)c2)nnc1C(C)C 102%, N#CC1=C(N)Oc2c(ccc3ccccc23)C1c1ccsc1 (stereo not given) 94%, CCCCNC(=O)CN1C(=O)c2cccc(N)c2C1=O 95%, CCCC(C(=O)NC1=NCCS1)c1ccccc1 (stereo not given) 96%, O=C(NCCC1=CCCCC1)C(c1ccccc1)c1ccccc1 90%, CCc1c(C)nc2c(C#N)c[nH]n2c1=O 78%, C=CCNC(=O)COc1ccc(S(=O)(=O)N2CCCC2)cc1 94%, Cc1ccc(C2CC(=O)N(c3ccc(F)cc3)C3=C2C(=O)CCC3)cc1 (stereo not given) 103%, CCSc1nnc(Cc2cc(=O)[nH]c(=O)[nH]2)n1-c1ccc(F)cc1 102%, Cc1ccccc1N(CC(=O)N/N=C/c1ccccc1Cl)C(=O)c1ccccc1 147%, COc1cc2nc(/C=C/c3ccc(N(C)C)cc3)sc2cc1SC 167%, CCC(C)(C)c1ccc(OCCCC[n+]2ccccc2)c(C(C)(C)CC)c1 124%, C=CCNc1nc(NC(C)(C)CO)nc(OCC)n1 109%, COC(=O)C(=O)/C=C(\O)c1ccc(C)cc1 92%, CNC(=O)COC(=O)c1cc(F)c(F)cc1Cl 102%, O=C(Nc1nnc(-c2ccco2)s1)C1CCCCC1 103%, Cc1cccc(NC(=O)CC(C)(C)C)c1 99%, CCCN1CCN(CCCNC(=O)C2CCCN(c3nc4ccc(OCC)cc4s3)C2)CC1 (stereo not given) 102%, Cc1cc(NC(=O)CSc2nc3cc4c(cc3c(=O)n2CCc2ccccc2)OCO4)no1 105%, Cc1nn(CCc2n[nH]c(=S)n2C)c(C)c1Br 100%, Brc1ccc(Nc2c3c(nc4ncnn24)CCC3)cc1 91%, COc1ccc(OC)c(-c2c3cc(O)c(=O)cc-3oc3cc(O)c(O)cc23)c1 191%, Cc1ccc(C)c(Cn2c(C(C)O)nc3ccccc32)c1 (stereo not given) 98%, Cc1cc(=O)oc2ccc(OCC(=O)N3CCC(C)CC3)cc12 103%, CCc1ccc(NC(=O)CSc2nc3n[nH]c(C)c3c(=N)n2-c2cccc(OC)c2)cc1 86%, O=C1/C(=C/c2cccnc2)SC(=S)N1CC1CCCO1 (stereo not given) 96%, CC(=O)Nc1ccc(NC2=C(Cl)C(=O)c3ccccc3C2=O)cc1 92%, COc1cc(C(=O)N(CCc2ccccc2)C2CC3CCC(C2)N3C)cc(OC)c1OC (stereo not given) 104%, CCn1cnc2c1c(=O)n(CC(=O)Nc1cc(C)on1)c(=O)n2Cc1ccccc1 109%, Cc1c(Cl)cccc1NC(=O)CC1SCCNC1=O (stereo not given) 106%, COc1cc2ncnc(NCc3ccco3)c2cc1OC 97%

GTP binding activity, inactive:
COc1ccccc1-n1c(SC)nc(O)cc1=O 100%, COc1ccc(N=C2C(=O)N3c4c(cccc42)C(C)=CC3(C)C)cc1 99%, O=[N+]([O-])c1cc(-c2nc(-c3ccncc3)no2)cc([N+](=O)[O-])c1 103%, CCNC(=S)Nc1ccc(S(=O)(=O)Nc2cc(C)nc(C)n2)cc1 100%, O=C(Nc1cc(S(=O)(=O)Nc2ccccc2Cl)ccc1O)c1sc2cc(Cl)ccc2c1Cl 85%, COc1ccc(-n2cc(-c3ccccc3)c3c(=O)[nH]cnc32)cc1 106%, O=C(CNC(=S)N(CCCN1CCOCC1)Cc1cccs1)N1CCCCCC1 101%, CC(C)=CCN1CCN(Cc2ccc(Oc3ncccn3)cc2)CC1CCO (stereo not given) 100%, CC[N+]1(CC)CC2CCC(C)(C1)C2(C)C (stereo not given) 100%, Cc1ccc(Cc2cnc(NC(=O)/C(C#N)=C/c3ccc(-c4ccc([N+](=O)[O-])cc4)o3)s2)cc1 83%, Clc1ccccc1-c1ccc(/C=N/Nc2nncc(-c3ccccc3)n2)o1 85%, CCOC(=O)c1sc(=S)n(C)c1NC(=O)c1ccccc1C 99%, Cc1onc(-c2c(F)cccc2Cl)c1C(=O)OCC(=O)NC1CC1 97%, Fc1ccc(-c2[nH]ncc2CN(CC2CCC2)CC2CCCO2)c(F)c1 (stereo not given) 97%, O=C(OCc1ccccc1)c1cccnc1Cl 99%, Cc1cc([N+](=O)[O-])nn1CCCC(=O)NC1CCCCC1 100%, CC(CCc1ccccc1)NC(=O)Cc1cccs1 (stereo not given) 100%, Cc1ccc2cc(CN(c3ccc(C)c(C)c3)S(C)(=O)=O)c(=O)[nH]c2c1 98%, CC(=O)Nc1ccc(Nc2nc(C)c([N+](=O)[O-])c(Nc3ccccc3)n2)cc1 99%, CCNC(=O)n1nccc1C(C)Oc1cccc(C(F)(F)F)c1 (stereo not given) 99%, CC(NC(=O)c1ccc(C23CC4CC(CC(C4)C2)C3)cc1)C(=O)O (stereo not given) 99%

GTP binding activity, active:
Cc1ccc(O)c(N=Cc2cc(Cc3ccccc3)cc([N+](=O)[O-])c2O)c1 74%, COCCOC(=O)c1c(C)oc2ccc(OC(=O)c3ccc4c(c3)OCO4)cc12 76%
